# Assay results taken from PubChem BioAssay AID651820 (National Center for Advancing Translational Sciences (NCATS), 2012).
# In all, about 340,000 compounds went through this assay and about 12,000 (3.5%) were called active. This list was built around the results that the source calls inconclusive (neither active nor inactive); the mix of calls is not that of the screen. Calls come from the whole dose curve; as a rule, active = well fitted inhibition curve with a large enough effect; inconclusive = small, poorly fitted or top-dose-only effect, or another doubt; inactive = no such curve, though single readings can be large or run the other way. No potency is given beside an inconclusive call; the fits are too rough.
# Assay: qHTS Assay for Inhibitors of Hepatitis C Virus (HCV)
# Settings: Huh7.5.1 HCVcc-Cre (HCVcc is cell-culture hepatitis C virus) infection, luciferase reporter, 44 h; activity change, negative = inhibition: at 41.8 µM (top of the series) unless noted
# How it was run: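 Whole-lifecycle infectious HCVcc-Cre system; cells 1,000/well, compound then virus (~0.5 moi) added 4 h after plating, 44 h culture. Luciferase read 15 sec following 15 min substrate incubation, room temp.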
# % is set by controls: 0 for no effect and ±100 for the full control effect; potency is the fitted concentration of half-maximal effect; tags give direction and shape of the fitted curve.
Structure (SMILES),"activity change, negative = inhibition",Potency
CS(=O)(=O)Cc1ccc(C(=O)N2CCCC2c2cccs2)cc1 (stereo not given),inactive: 8.19%,
Cc1cc(=O)[nH]c(N=N/C(=N/Nc2ccccc2C)c2ccccc2)n1,,"inconclusive [inhibitor, partial curve]"
O=C(CCCc1c[nH]c2ccccc12)NCC1COc2ccccc2O1 (stereo not given),,"inconclusive [inhibitor, single point]"
CSc1nc2sc3c(c2c2nncn12)CCC3,,"inconclusive [inhibitor, partial curve, poor fit]"
C=CCNC(=O)CSc1ncc2c(n1)-c1c(csc1SC)CC2,inactive: -6.24%,
CC1=CCC2C(=O)N(c3cccc(C(=O)Nc4ccc(Cl)cc4)c3)C(=O)C2C1 (stereo not given),,"inconclusive [inhibitor, single point]"
COc1cccc(/C=N/Nc2ncnc(Cl)c2N)c1O,,active: 5.62 µM
O=C(Cn1ncc2c1-c1ccccc1OC2)Nc1ccc(S(=O)(=O)N2CCCCC2)cc1,,"inconclusive [inhibitor, single point]"
Cc1c(C(=O)Nc2cccc(F)c2)cnn1-c1ccccc1,,active: 11.2 µM
O=C1CSC(c2ccccc2F)N1c1ccccc1 (stereo not given),,"inconclusive [inhibitor, single point]"
Cc1cc2occ(CC(=O)NC3CCCc4ccccc43)c2cc1C (stereo not given),,"inconclusive [inhibitor, partial curve, poor fit]"
Cc1cc(NC(=O)CSCC(=O)N(c2cccc(Cl)c2)C(C(=O)NC2CCCCC2)c2ccc(O)c(O)c2)no1 (stereo not given),inactive: 1.89%,
COc1ccc(-c2noc(CCC(=O)NCCc3cccc(C)c3)n2)cc1,,active: 8.91 µM
OC1CCN(C(=S)NCCc2ccccc2)CC1,,"inconclusive [inhibitor, single point]"
COC(=O)c1ccccc1NC(=O)/C=C/c1cc(OC)c(OC)c(OC)c1,,active: 5.01 µM
O=C(CSc1ncccn1)N/N=C/c1ccc2c(c1)OCO2,inactive: 6.1%,
CC[C@]1(C(=O)OC)[C@H]2C(=O)N(Cc3ccccc3)C(=O)[C@H]2[C@H]2CN=C(SCc3ccc(Cl)cc3)N21,,"inconclusive [inhibitor, single point]"
O=C(C[n+]1cccc(C(=O)N/N=C/c2ccc(Br)cc2)c1)c1ccccc1,,"inconclusive [inhibitor, partial curve]"
Cc1cccc(OCC(=O)NC(C)C(=O)N/N=C/c2c(OCc3ccccc3)ccc3ccccc23)c1 (stereo not given),,active: 7.94 µM
C[C@H]1C=C(C(=O)NCc2nc3ccccc3[nH]2)O[C@@H](OCc2ccc(CO)cc2)C1,,"inconclusive [inhibitor, partial curve]"
Cc1nc(N2CCN(S(=O)(=O)c3ccccc3C#N)CC2)c2c(-c3ccccc3)csc2n1,,active: 8.91 µM
O=C(Nc1ccc(N2CCOCC2)cc1)C1CCN(C(=O)OCc2ccccc2)CC1,,"inconclusive [inhibitor, single point]"
CCOC(=O)CSc1ncnc2c1cnn2-c1ccc(C)cc1,inactive: 8.93%,
c1cc(CNc2ccc(N3CCOCC3)cc2)ccn1,inactive: 4.68%,

Structure (SMILES),"activity change, negative = inhibition",Potency
Cc1ccc(C(=O)OCC(=O)NC2CCCC(C)C2C)cc1S(=O)(=O)N1CCCCC1 (stereo not given),,"inconclusive [inhibitor, single point]"
O=C(c1cc(-c2cccnc2)nc2ccccc12)N1CCCc2ccccc21,inconclusive: -34.7% [inhibitor],
CNC(=S)Nc1cc(C)ccc1OC(F)F,inactive: -9.99%,
COc1ccc(S(=O)(=O)N2CCOCC2)cc1NC(=O)c1ccc(OCC(C)C)c(OC)c1,,"inconclusive [inhibitor, partial curve]"
Cc1ccc2cc3cc(C(=O)NCCCN4CCc5ccccc5C4)oc3nc2c1,,"inconclusive [inhibitor, partial curve]"
O=C(Nc1ccc(Oc2cccnc2)cc1)c1ccccc1Cl,,"inconclusive [inhibitor, single point]"
CCOc1ccc(OCC)c(NC(=O)C2CCCN2S(=O)(=O)c2cccc3cccnc23)c1 (stereo not given),,"inconclusive [inhibitor, partial curve]"
CCS(=O)(=O)c1ncc(Cl)c(C(=O)Nc2ccccc2OC)n1,,"inconclusive [inhibitor, single point]"
COC(=O)C(Oc1ccc2c(-c3ccc(OC)cc3)cc(=O)oc2c1)c1ccccc1 (stereo not given),,"inconclusive [inhibitor, single point]"
COc1ccc(C(CNC(=O)COc2cc(C)ccc2Cl)N2CCCCC2)cc1 (stereo not given),,"inconclusive [inhibitor, single point]"
Cc1ccc(S(=O)(=O)c2c(C)nn(C(C)(C)C)c2OC(=O)C2CCCC2)cc1,,"inconclusive [inhibitor, single point]"
COc1ccccc1N1CCN(Cc2cc3c(cc2O)OCO3)CC1,inactive: 3.13%,
COc1ccc(C(=O)N[C@H](C(=O)NCc2cccs2)C(C)C)cc1,,"inconclusive [inhibitor, single point]"
c1coc(CNc2ncnc3nc[nH]c23)c1,,"inconclusive [inhibitor, single point]"
Cc1ccc(C(=O)Cn2c(C(=O)/C=C/c3ccccc3)nc3ccccc32)cc1,,"inconclusive [inhibitor, single point]"
N=c1nc(N)nc2n1NC(c1ccc(F)cc1)=CS2,,"inconclusive [inhibitor, partial curve]"
CCN(CC)S(=O)(=O)c1ccc2[nH]c(=O)c3ccccc3c2c1,inactive: 12.5%,
O=C(CN1C(=O)NC(c2ccccc2)(c2ccccc2)C1=O)NCCc1ccc(F)cc1,,"inconclusive [inhibitor, partial curve]"
CCCNC(=O)C(Cc1cccc(C#N)c1)NC(=O)c1ccc(C#N)cc1 (stereo not given),,"inconclusive [inhibitor, partial curve]"
COc1ccc(NC(=O)c2sccc2-n2cccc2)cc1,inactive: 13.7%,
Cc1ccccc1C(=O)Nc1ccc(N2CCN(C)CC2)nc1,inactive: -0.514%,
COc1cc(C2C3=C(Nc4ncnn42)c2ccccc2CC3)cc(OC)c1OC (stereo not given),,"inconclusive [inhibitor, single point]"
COc1ccc(S(=O)(=O)N2CC(C)OC(C)C2)cc1C(=O)N1CCCCC1 (stereo not given),inactive: 17.2%,
CCN(CCNC(=O)c1ccc(C#N)cc1)c1cccc(C)c1,,"inconclusive [inhibitor, full curve]"

Structure (SMILES),"activity change, negative = inhibition",Potency
C=CCn1c(COc2ccccc2)nnc1SC(C)C(=O)N/N=C/c1cc(Cl)ccc1O (stereo not given),,"inconclusive [inhibitor, single point]"
Cc1ccc(Nc2nc(Cl)nc3ncn(C)c23)c(C)c1,inactive: -2.53%,
Cc1ccc(CCNC(=O)C2CCN(C(=O)N(C)C)CC2)cc1,inactive: 11.1%,
CN1C(C(=O)NCc2cccc(C(F)(F)F)c2)CC2Cn3c(nc4cc5ccccc5cc43)C21 (stereo not given),,"inconclusive [inhibitor, single point]"
Cc1nc(-c2ccc(NC(=O)C3CC3)cc2)cs1,inactive: 1.96%,
CCNC(=O)c1ccc(CSc2ccc(Cl)cc2)cc1,,"inconclusive [inhibitor, single point]"
CC(C)=CCC/C(C)=C/CNC(=O)C[C@H]1C[C@H](C(=O)N2CCCCC2)[C@@]2(C)c3[nH]c4cc(CCC(=O)N(C)C)ccc4c3CCN2C1=O,,active: 7.94 µM
CCN1CC(CN(C)Cc2nc(-c3ccc(C(F)(F)F)cc3)no2)CC1=O (stereo not given),,"inconclusive [inhibitor, single point]"
COn1c(SCc2ccc(C)cc2C)nc2ccccc2c1=O,,"inconclusive [inhibitor, single point]"
CC(=O)Nc1ccc(OCC(O)Cn2c3ccccc3c3ccccc32)cc1 (stereo not given),,"inconclusive [inhibitor, single point]"
COc1ccc(OC)c(NC(=O)Cn2cc(C(=O)c3ccco3)c3ccccc32)c1,,"inconclusive [inhibitor, partial curve]"
CCOC(=O)c1c(-c2cccc(C)c2)csc1NC(=O)C1CC=CCC1C(=O)O (stereo not given),,"inconclusive [inhibitor, single point]"
Cc1ccc(S(=O)(=O)N2CCCCC2)cc1NC(=O)Cn1cc(C(F)(F)F)ccc1=O,,"inconclusive [inhibitor, partial curve]"
Cc1sc(NC(=S)NC(=O)c2ccc(C(C)(C)C)cc2)c(C#N)c1C,,"inconclusive [inhibitor, full curve]"
CCc1ccc2oc(-c3ccc(OC)cc3)cc(=Nc3c(C)n(C)n(-c4ccccc4)c3=O)c2c1,,active: 10 µM
Cc1cccc(CSc2nc3ccncc3n2CC(=O)Nc2cc(C)cc(C)c2)c1,inactive: -13.5%,
COc1cccc(NC(=O)CN(C)C(=O)/C=C/c2cn(Cc3ccccc3)nc2-c2cccnc2)c1,,"inconclusive [inhibitor, single point]"
Cc1ccc2[nH]c(=O)c3cc(C(=O)NCC4CCCO4)sc3c2c1 (stereo not given),,"inconclusive [inhibitor, single point]"
CCOc1ccc(NC(=O)c2ccc3nccnc3c2)cc1,,"inconclusive [inhibitor, partial curve]"
CC(=O)N1CCOc2ccc(S(=O)(=O)N3CCCC(C)C3)cc21 (stereo not given),inactive: 8.33%,
Cc1ccc(C(C(=O)NC2CCCC2)N2CCc3ccccc32)cc1 (stereo not given),inactive: 9.49%,
Cc1cccc(-c2nnc3n2N=C(c2ccccc2Br)CS3)c1,,"inconclusive [inhibitor, partial curve]"
